In PubChem BioAssay AID504845 (National Center for Advancing Translational Sciences (NCATS), 2011):
The campaign covered roughly 390,000 compounds. About 150 (0.038%) were called active. The inconclusive results got no clear call from the source; some entries with a clear call stand among them for comparison. The call rests on the fitted dose curve; in most records, active means well fitted inhibition curve with a large enough effect; inconclusive means small, poorly fitted or top-dose-only effect; inactive means no such curve, though single readings can be large or run the other way. A potency beside an inconclusive call is a rough fit, not a confirmed value.
Further: nearly all actives have a fitted effect of over 75% in size.
On the % scale 0 is the no-effect control and ±100 the full control effect; potency means the concentration at half of the fitted maximal effect; tags describe the fitted curve by direction and shape.

The molecules below were run against Regulator of G-protein signaling 4 (Homo sapiens) (UniProt P49798) (assay: Inhibitors of Regulator of G Protein Signaling (RGS) 4: qHTS). Conditions: Transcreener GDP fluorescence polarization, RGS4-accelerated GTP hydrolysis; series mostly up to 114 µM; activity change, negative = inhibition: at the top concentration.
Sequence of UniProt P49798 (P49798 whole entry, looked up): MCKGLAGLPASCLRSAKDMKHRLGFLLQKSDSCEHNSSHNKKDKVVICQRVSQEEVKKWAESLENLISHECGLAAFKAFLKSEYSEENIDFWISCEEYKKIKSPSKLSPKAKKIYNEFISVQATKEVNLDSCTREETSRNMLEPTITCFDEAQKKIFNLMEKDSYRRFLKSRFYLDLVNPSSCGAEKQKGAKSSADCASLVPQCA
In short: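 MLSMR compounds (23 nl, pin-transferred) preincubated 10 min at room temperature with a 500nM (2x) first reagent, then RGS4 at 900nM (2x) plus Transcreener GDP mix added; fluorescence polarization (620/688 nm) read before and after 90 min at 30 °C.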
For `CC(C(=O)C12CC3CC(CC(C3)C1)C2)N1CCOCC1` (centres undefined), the Potency was inconclusive: 79.4 µM [inhibitor, partial curve, poor fit].
For `COc1ccc2cc(C3CC(c4ccco4)=NN3S(=O)(=O)c3ccccc3)c(Cl)nc2c1` (centres undefined), the “activity change, negative = inhibition” value was inactive: -0.431%.
`COc1ccc(OC(C)C(=O)NCc2nc(-c3cccc(C)c3)no2)cc1` (centres undefined) was tested, and the “activity change, negative = inhibition” value was inactive: -7.83%.
For `Cc1cc(-c2cc(C)c(N)cc2C)c(C)cc1N`, the “activity change, negative = inhibition” value was inactive: 3.25%.
With `CSc1nn(Cc2cccc(Cl)c2)c(N(C(C)=O)C(C)=O)c1S(=O)(=O)c1ccccc1` the “activity change, negative = inhibition” value was inactive: -8.59%.
With `O=C(Nc1ccc2nc3n(c(=O)c2c1)CCCCC3)c1c(F)ccc([N+](=O)[O-])c1F` the Potency was inconclusive: 50.1 µM [inhibitor, partial curve, poor fit].
`COC(=O)c1c(NC(=O)C2COc3ccccc3O2)sc2c1CCN(Cc1ccccc1)C2` (centres undefined) was tested, and the “activity change, negative = inhibition” value was inactive: -20.9%.
With `COc1ccc(S(=O)(=O)Nc2ccc(O)c3ccccc23)cc1` the Potency was inconclusive: 79.4 µM [inhibitor, partial curve, poor fit].
With `COc1ccc(F)cc1S(=O)(=O)n1nnc2ccccc21` the “activity change, negative = inhibition” value was inactive: -0.628%.
With `CC1Cc2ccccc2N1C(=O)CSc1nnc(NC(=O)Cc2cccs2)s1` (centres undefined) the Potency was inconclusive: 79.4 µM [inhibitor, single point].
In the case of `O=[N+]([O-])c1ccc2nc(SCc3cn4ccccc4n3)[nH]c2c1`, the Potency is reported as inconclusive: 50.1 µM [inhibitor, partial curve, poor fit].
In the case of `COc1ccc(-n2cc(C(=O)OCc3ccc(Cl)cc3)c3ccccc3c2=O)cc1`, the Potency is reported as inconclusive: 79.4 µM [inhibitor, single point].
With `O=C(NCc1ccccn1)c1ccc(Cn2c(=S)[nH]c3ccc(Br)cc3c2=O)cc1` the Potency was inconclusive: 44.7 µM [inhibitor, partial curve, poor fit].
In the case of `COc1ccc(C(=S)N2CCOCC2)cc1OC(=O)c1ccc([N+](=O)[O-])cc1`, the Potency is reported as inconclusive: 31.6 µM [inhibitor, full curve, poor fit].
For `CC(C)N(C(=S)Nc1cccc(C(F)(F)F)c1)C(C)c1ccccn1` (centres undefined), the Potency was inconclusive: 44.7 µM [inhibitor, partial curve, poor fit].
For `Cc1cccc(NC(=O)CN(C)CC(=O)NC(c2ccccc2)c2ccccc2)c1C`, the “activity change, negative = inhibition” value was inactive: -6.48%.
With `COc1ccc2c(c1)-c1nc(/N=C/c3ccccc3O)sc1CC2` the Potency was inconclusive: 50.1 µM [inhibitor, partial curve, poor fit].
With `CC(=O)N(C1=C(Cl)C(=O)c2ccccc2C1=O)c1ccc(C(=O)O)cc1` the Potency was inconclusive: 25.1 µM [inhibitor, full curve, poor fit].
With `Cc1nc2c(O)c3c(c(O)c2nc1C)C1C=CC3CC1` the “activity change, negative = inhibition” value was inactive: -38.5%.
For `COc1cc(OC)c(C(=O)Nc2cccc(C(C)=O)c2)cc1OC`, the Potency was inconclusive: 100 µM [inhibitor, single point].
For `Cn1c2ccccc2c2ccc3c(c21)C(=O)C=CC3=O`, the Potency was inconclusive: 79.4 µM [inhibitor, partial curve, poor fit].
In the case of `CCN(CC)CCN(C(=O)c1ccc2c(c1)CCCC2)c1nc2ccc(OC)cc2s1`, the “activity change, negative = inhibition” value is reported as inactive: -27.5%.
In the case of `CCc1ccc(N2CSC3=C(C#N)C(c4cccs4)CC(=O)N3C2)cc1` (centres undefined), the Potency is reported as inconclusive: 70.8 µM [inhibitor, partial curve, poor fit].
For `COc1ccc(C(=O)N/N=C/c2ccc(N3CCOCC3)o2)cc1OC`, the Potency was inconclusive: 50.1 µM [inhibitor, partial curve, poor fit].
`O=C(c1cc(F)ccc1F)C1CCCN(C(=O)CCN2CCCCO2)C1` (centres undefined) was tested, and the Potency was inconclusive: 79.4 µM [inhibitor, partial curve, poor fit].
For `Cc1c2c(=O)n(-c3nc4ccccc4s3)nc-2cc(O)n1Cc1ccccc1`, the Potency was inconclusive: 39.8 µM [inhibitor, partial curve, poor fit].
In the case of `COC(=O)c1ccccc1NC(=O)CSc1n[nH]c(-c2cccnc2)n1`, the Potency is reported as inconclusive: 50.1 µM [inhibitor, partial curve, poor fit].
With `CSc1ccccc1C(=O)Nc1ccc(C)cc1C` the Potency was inconclusive: 89.1 µM [inhibitor, single point].
For `CC(C)Cc1c2c([nH]c(=S)c1C#N)CCCC2`, the Potency was inconclusive: 50.1 µM [inhibitor, partial curve, poor fit].
For `CCOC(=O)N1CCc2c(sc(NCc3cccs3)c2C(=O)Nc2ccc(OC)cc2OC)C1`, the Potency was inconclusive: 50.1 µM [inhibitor, partial curve, poor fit].
In the case of `C[C@]12c3[nH]c4cc(-c5ccco5)ccc4c3CCN1C(=O)[C@@H](CC(=O)NCCC1=CCCCC1)C[C@@H]2C(=O)N1CCCCC1`, the Potency is reported as inconclusive: 44.7 µM [inhibitor, partial curve, poor fit].
With `CCOc1ccc(CCNC(=O)c2ccc3c(c2)N(Cc2ccccc2F)C(=O)c2ccccc2S3=O)cc1OCC` (centres undefined) the “activity change, negative = inhibition” value was inactive: 0.358%.
For `Cc1ccc(N=c2ssnc2Cl)cc1`, the Potency was inconclusive: 50.1 µM [inhibitor, partial curve, poor fit].
With `O=C(CCS(=O)(=O)c1cc2c3c(c1)CCN3C(=O)CC2)Nc1cccc(Br)c1` the Potency was inconclusive: 70.8 µM [inhibitor, partial curve, poor fit].
In the case of `Cc1ccc(-n2nc(-c3ccco3)cc2C(=O)NCc2cccnc2)cc1`, the Potency is reported as inconclusive: 44.7 µM [inhibitor, partial curve, poor fit].
In the case of `CCOc1ccc(C(=O)Nc2cc(C)on2)cc1`, the “activity change, negative = inhibition” value is reported as inactive: -8.86%.
In the case of `CCC(CO)Oc1cc(NC(=O)c2ccc(F)cc2)c2ncn(C(C)C)c2c1` (centres undefined), the Potency is reported as inconclusive: 50.1 µM [inhibitor, partial curve, poor fit].
`COC(=O)Cn1c(=O)oc2ccc(C)cc21` was tested, and the Potency was inconclusive: 28.2 µM [inhibitor, full curve, poor fit].
`O=C(/C=C/c1ccc(OCc2cccc(Cl)c2)cc1)N1CCOCC1` was tested, and the “activity change, negative = inhibition” value was inactive: -7.02%.
With `CSc1ccc(/C=N/NC(=O)c2ccc(C)c(C)c2)cc1` the Potency was inconclusive: 50.1 µM [inhibitor, partial curve, poor fit].
For `O=S(=O)(c1cnc(Cl)c(Cl)c1)N1CCc2ccccc21`, the “activity change, negative = inhibition” value was inactive: 15.4%.
In the case of `CS/C(N)=N/N=C/c1ccc([N+](=O)[O-])cc1`, the Potency is reported as inconclusive: 70.8 µM [inhibitor, partial curve, poor fit].
For `COC(=O)C1=C(C)N(c2cccc(OC)c2)C(=O)/C1=C\c1ccco1`, the Potency was inconclusive: 56.2 µM [inhibitor, partial curve, poor fit].
For `Cc1ccc(C)n1-c1nc(=S)[nH][nH]1`, the “activity change, negative = inhibition” value was inactive: -122%.
With `NC(=S)N/N=C/c1cccc(O)c1O` the “activity change, negative = inhibition” value was inactive: -22.8%.
For `CCN(CC)CCOc1c(Br)ccc2c1sc1nc3n(c(=O)c12)CCC3`, the Potency was inconclusive: 100 µM [inhibitor, single point].
With `CCS(=O)(=O)c1ncc(Cl)c(C(=O)NCc2ccccc2)n1` the “activity change, negative = inhibition” value was inactive: -17.7%.
`Cc1ccc(Nc2c(-c3ccc(C)o3)nc3cccc(C)n23)cc1` was tested, and the Potency was inconclusive: 17.8 µM [inhibitor, full curve, poor fit].
`O=C(CSc1nc(-c2ccc(F)cc2)nc2ccc(F)cc12)Nc1cccc(C(=O)O)c1` was tested, and the Potency was inconclusive: 70.8 µM [inhibitor, single point].
`O=C(O)C1OC1(c1ccccc1Cl)c1ccccc1Cl` (centres undefined) was tested, and the Potency was inconclusive: 89.1 µM [inhibitor, single point].
In the case of `Cn1c(N)c(C(=O)CSc2nnc(-c3c[nH]c4ccccc34)n2C2CC2)c(=O)[nH]c1=O`, the Potency is reported as inconclusive: 79.4 µM [inhibitor, partial curve, poor fit].
With `C=CCNC(=O)c1ccc(Cn2c(=S)[nH]c3cc4c(cc3c2=O)OCO4)cc1` the Potency was inconclusive: 31.6 µM [inhibitor, full curve, poor fit].
In the case of `Cc1ccc(S(=O)(=O)/N=S(\C)C(C)C)cc1` (centres undefined), the Potency is reported as inconclusive: 50.1 µM [inhibitor, partial curve, poor fit].
`CCOC(=O)c1cnc(-n2cc(C)cn2)nc1Nc1ccccc1OCC` was tested, and the “activity change, negative = inhibition” value was inactive: -4.08%.
In the case of `CC1=CC(=O)C(C(C)C)=C/C1=C(\c1cc(C(C)C)c(OP(=O)(O)O)cc1C)c1ccccc1C(=O)O`, the Potency is reported as inconclusive: 31.6 µM [inhibitor, full curve, poor fit].
With `Cc1nn(CC(=O)OCC(=O)Nc2c(C(C)C)cccc2C(C)C)c(C)c1[N+](=O)[O-]` the Potency was inconclusive: 56.2 µM [inhibitor, partial curve, poor fit].
`CCOc1ccc2nc(N3C(=O)/C(=C/c4ccccc4)NC3=S)sc2c1` was tested, and the Potency was inconclusive: 89.1 µM [inhibitor, single point].
In the case of `Cc1ccccc1Nc1nc(N)nc(COC(=O)CCS(=O)(=O)c2ccccc2)n1`, the “activity change, negative = inhibition” value is reported as inactive: -8.73%.
With `COc1cccc(NC(=O)CSc2nc3c(sc4ccccc43)c(=O)n2CCCN2CCCC2)c1` the “activity change, negative = inhibition” value was inactive: -32.5%.
For `CCCCCC(=O)Nc1nc(C)c(-c2csc(Nc3ccccc3OC)n2)s1`, the Potency was inconclusive: 79.4 µM [inhibitor, partial curve, poor fit].
In the case of `Cc1nnc(NC(=O)CSc2cn(CCNC(=O)c3ccccc3)c3ccccc23)s1`, the “activity change, negative = inhibition” value is reported as inactive: -21.8%.
`O=c1c2cc(N3CCOCC3)ccc2[nH]c(=S)n1Cc1ccccn1` was tested, and the Potency was inconclusive: 70.8 µM [inhibitor, single point].
For `COc1ccc(/C=C/C(=O)Nc2ccc3nc4c(c(Nc5ccc(OC)c(OC)c5)c3c2)CCCC4)cc1`, the Potency was inconclusive: 50.1 µM [inhibitor, partial curve, poor fit].
`COc1cccc(/C=C/C2=CC(C)(C)NC(=S)N2)c1` was tested, and the Potency was inconclusive: 28.2 µM [inhibitor, full curve, poor fit].
